Assay [1] deals with T1, recombinant human OX40-Fc (R&D systems, 3388-OX) (human, UniProt P43489 29-216).
T1 construct: Bought protein; also called recombinant human OX40 antigen (OX40-Fc, R&D); not shown: Fc portion of the bought fusion protein
T1 sequence: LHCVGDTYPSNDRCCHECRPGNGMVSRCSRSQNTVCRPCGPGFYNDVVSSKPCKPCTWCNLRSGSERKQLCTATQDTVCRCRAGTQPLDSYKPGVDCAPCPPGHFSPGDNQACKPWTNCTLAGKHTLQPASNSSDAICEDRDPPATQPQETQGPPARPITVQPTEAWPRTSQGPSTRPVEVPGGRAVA
The experiment in a line: Bio-layer interferometry (Octet), OX40-Fc on the sensor, antibody 50 to 0.78 nM in solution.

Assay [2] has as its target T2, R80A.
T2 construct: also called human OX40 alanine mutant R80A on 1624-5 cells
T2 receptor chain: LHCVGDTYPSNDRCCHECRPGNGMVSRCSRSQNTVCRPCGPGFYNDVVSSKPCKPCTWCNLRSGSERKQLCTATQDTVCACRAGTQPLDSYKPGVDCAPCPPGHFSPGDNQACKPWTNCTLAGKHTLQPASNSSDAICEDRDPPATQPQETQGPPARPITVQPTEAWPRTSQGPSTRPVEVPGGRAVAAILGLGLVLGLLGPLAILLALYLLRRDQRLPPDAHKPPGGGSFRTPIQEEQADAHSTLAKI
In words: flow cytometry on 1624-5 cells expressing the human OX40 alanine mutant; pab1949-1 at 2 and 0.5 µg/ml. On the procedure:
(§1) This anti-OX40 antibody non-reactive cell population was subjected to a final, single-cell sorting step. […] The polyclonal anti-OX40 antibody (AF3388, R&D systems) conjugated with APC was diluted at 1:2000. Fc receptor block (1:200; BD Cat no. 553142) was added, and the samples were incubated for 20 minutes at 4° C. […] The cells were then washed and acquired using a flow cytometer (BD Biosciences).
For orientation: A flow cytometer gives signals particle by particle.

For assay [3], the target named is T3, N60A.
T3 construct: also called human OX40 alanine mutant N60A on 1624-5 cells
T3 receptor chain: T2 receptor chain with N60A, A80R
The assay is described as above. On the procedure:
as §1

The target in assay [4] is T4, P115A.
T4 construct: also called human OX40 alanine mutant P115A on 1624-5 cells
T4 receptor chain: T2 receptor chain with A80R, P115A
The description is as above. The protocol:
as §1

Assay [5] deals with T5, R62A.
T5 construct: also called human OX40 alanine mutant R62A on 1624-5 cells
T5 receptor chain: T2 receptor chain with R62A, A80R
The assay is described as above. The protocol:
as §1

Assay [6] addresses T6, L88A.
T6 construct: also called human OX40 alanine mutant L88A on 1624-5 cells
T6 receptor chain: T2 receptor chain with A80R, L88A
The assay is described as above. On the procedure: as §1

Assay [7] concerns the target T7, P93A.
T7 construct: also called human OX40 alanine mutant P93A on 1624-5 cells
T7 receptor chain: T2 receptor chain with A80R, P93A
The description is as above. On the procedure: as §1

For assay [8], the target named is T8, W58A.
T8 construct: also called human OX40 alanine mutant W58A on 1624-5 cells
T8 receptor chain: T2 receptor chain with W58A, A80R
The assay is described as above. On the procedure:
as §1

In assay [9] the target is T9, P99A.
T9 construct: also called human OX40 alanine mutant P99A on 1624-5 cells
T9 receptor chain: T2 receptor chain with A80R, P99A
The description is as above. The protocol: as §1

Assay [10] addresses T10, human OX40 on cells (human, UniProt P43489 29-277).
T10 construct: also called CD134; TNFRSF4
T10 sequence: T2 receptor chain with A80R
In words: flow cytometry on human T cells activated with anti-CD3/anti-CD28 beads, CD4+ gate; pab1949-1 detected with anti-kappa IgG PE.

Residue numbers refer to the chain shown, from its start.

B1: pab1949-1 (antibody, human IgG1, kappa)
heavy: EVQLVESGGGLVQPGGSLKLSCAASGFTFSGSAMHWVRQASGKGLEWVGRIRSKANSYATAYAASVKGRFTISRDDSKNTAYLQMNSLKTEDTAVYYCTSGIYDSSGYDYWGQGTLVTVSSASTKGPSVFPLAPSSKSTSGGTAALGCLVKDYFPEPVTVSWNSGALTSGVHTFPAVLQSSGLYSLSSVVTVPSSSLGTQTYICNVNHKPSNTKVDKRV[human IgG1 Fc omitted]
light: not shown
notes: Human IgG1 antibody
A word on the Kd: it is the constant that tells how readily two partners part at equilibrium. As a reminder, the koff is the rate constant with which the complex falls apart. A word on the kon: it is the rate constant with which the complex forms. As usually defined, the EC50 (read off the curve) is the concentration needed to bring the measured effect to its halfway point. With B1, the Kd in assay [1] was determined as 0.11 nM. The koff in assay [1] came out at 0.000126 s⁻¹. In [1], the kon is 1.09e+06 M⁻¹ s⁻¹. Also, the binding result in assay [2], in assay [3], in [4], in assay [5], in assay [6] and in [7] was “no binding (tested: 2 µg/ml)” throughout. The binding result in [8] and in assay [9] was “no binding (tested: 2 µg/ml)” in each case. Moreover, the “EC50 (read off the curve)” value in [10] is approximately 0.1 µg/mL.
